# In article PMC9911399, “Two distinct binding modes provide the RNA-binding protein RbFox with extraordinary sequence specificity”:
# Where a chain is given by its changes, count along the chain named. This is one part of the list.
# T1: RBFOX1 RRM (Homo sapiens, UniProt Q9NWB1 109-208)
# T1 sequence: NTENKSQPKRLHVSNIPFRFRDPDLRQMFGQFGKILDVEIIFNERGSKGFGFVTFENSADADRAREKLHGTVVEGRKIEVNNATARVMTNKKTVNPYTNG
# B1: UCACAAU (DNA:RNA)
# RNA: GGGAGACCGGAAUUCAGAUUGUCCUCACAAUUUAAAUCCCGUCGUAGCCACCA
# DNA 1: CAATCTGAATTCCGGTCTCCC
# DNA 2: TGGTGGCTACGACGGGATT
# B2: GGGGCGC (DNA:RNA)
# RNA: GGGAGACCGGAAUUCAGAUUGUCCGGGGCGCUUAAAUCCCGUCGUAGCCACCA
# DNA 1: CAATCTGAATTCCGGTCTCCC
# DNA 2: TGGTGGCTACGACGGGATT
# B3: GGGUUCA (DNA:RNA)
# RNA: B2 RNA with G28U, C29U, G30C, C31A
# DNA 1: CAATCTGAATTCCGGTCTCCC
# DNA 2: TGGTGGCTACGACGGGATT
# B4: GAAUGGG (DNA:RNA)
# RNA: B2 RNA with G26A, G27A, G28U, C29G, C31G
# DNA 1: CAATCTGAATTCCGGTCTCCC
# DNA 2: TGGTGGCTACGACGGGATT
# B5: CCUGGCU (DNA:RNA)
# RNA: B1 RNA with U25C, A27U, C28G, A29G, A30C
# DNA 1: CAATCTGAATTCCGGTCTCCC
# DNA 2: TGGTGGCTACGACGGGATT
# B6: ACUGUCU (DNA:RNA)
# RNA: B1 RNA with U25A, A27U, C28G, A29U, A30C
# DNA 1: CAATCTGAATTCCGGTCTCCC
# DNA 2: TGGTGGCTACGACGGGATT
# B7: GGGAAUG (DNA:RNA)
# RNA: B2 RNA with G28A, C29A, G30U, C31G
# DNA 1: CAATCTGAATTCCGGTCTCCC
# DNA 2: TGGTGGCTACGACGGGATT
# B8: GCUGCUG (DNA:RNA)
# RNA: B2 RNA with G26C, G27U, G30U, C31G
# DNA 1: CAATCTGAATTCCGGTCTCCC
# DNA 2: TGGTGGCTACGACGGGATT
# B9: UUUAACA (DNA:RNA)
# RNA: B1 RNA with C26U, A27U, C28A, A30C, U31A
# DNA 1: CAATCTGAATTCCGGTCTCCC
# DNA 2: TGGTGGCTACGACGGGATT
# B10: AAAAUAA (DNA:RNA)
# RNA: B1 RNA with U25A, C26A, C28A, A29U, U31A
# DNA 1: CAATCTGAATTCCGGTCTCCC
# DNA 2: TGGTGGCTACGACGGGATT
# B11: AGUACCG (DNA:RNA)
# RNA: B2 RNA with G25A, G27U, G28A, G30C, C31G
# DNA 1: CAATCTGAATTCCGGTCTCCC
# DNA 2: TGGTGGCTACGACGGGATT
# B12: GGACAAU (DNA:RNA)
# RNA: B1 RNA with U25G, C26G
# DNA 1: CAATCTGAATTCCGGTCTCCC
# DNA 2: TGGTGGCTACGACGGGATT
# B13: AAUGUCA (DNA:RNA)
# RNA: B2 RNA with G25A, G26A, G27U, C29U, G30C, C31A
# DNA 1: CAATCTGAATTCCGGTCTCCC
# DNA 2: TGGTGGCTACGACGGGATT
# B14: CCUAUGU (DNA:RNA)
# RNA: B1 RNA with U25C, A27U, C28A, A29U, A30G
# DNA 1: CAATCTGAATTCCGGTCTCCC
# DNA 2: TGGTGGCTACGACGGGATT
# B15: GUCGCGA (DNA:RNA)
# RNA: B2 RNA with G26U, G27C, C31A
# DNA 1: CAATCTGAATTCCGGTCTCCC
# DNA 2: TGGTGGCTACGACGGGATT
# B16: UGUUGGA (DNA:RNA)
# RNA: B2 RNA with G25U, G27U, G28U, C29G, C31A
# DNA 1: CAATCTGAATTCCGGTCTCCC
# DNA 2: TGGTGGCTACGACGGGATT
# B17: UAUACGU (DNA:RNA)
# RNA: B2 RNA with G25U, G26A, G27U, G28A, C31U
# DNA 1: CAATCTGAATTCCGGTCTCCC
# DNA 2: TGGTGGCTACGACGGGATT
# B18: UAAAGCU (DNA:RNA)
# RNA: B1 RNA with C26A, C28A, A29G, A30C
# DNA 1: CAATCTGAATTCCGGTCTCCC
# DNA 2: TGGTGGCTACGACGGGATT
# B19: UGAGCGG (DNA:RNA)
# RNA: B2 RNA with G25U, G27A, C31G
# DNA 1: CAATCTGAATTCCGGTCTCCC
# DNA 2: TGGTGGCTACGACGGGATT
# B20: AAUUAGU (DNA:RNA)
# RNA: B1 RNA with U25A, C26A, A27U, C28U, A30G
# DNA 1: CAATCTGAATTCCGGTCTCCC
# DNA 2: TGGTGGCTACGACGGGATT
# B21: GGGUCGG (DNA:RNA)
# RNA: B2 RNA with G28U, C31G
# DNA 1: CAATCTGAATTCCGGTCTCCC
# DNA 2: TGGTGGCTACGACGGGATT
# B22: UAGUAUU (DNA:RNA)
# RNA: B1 RNA with C26A, A27G, C28U, A30U
# DNA 1: CAATCTGAATTCCGGTCTCCC
# DNA 2: TGGTGGCTACGACGGGATT
# B23: AGUAUUU (DNA:RNA)
# RNA: B2 RNA with G25A, G27U, G28A, C29U, G30U, C31U
# DNA 1: CAATCTGAATTCCGGTCTCCC
# DNA 2: TGGTGGCTACGACGGGATT
# B24: CGCAUAG (DNA:RNA)
# RNA: B2 RNA with G25C, G27C, G28A, C29U, G30A, C31G
# DNA 1: CAATCTGAATTCCGGTCTCCC
# DNA 2: TGGTGGCTACGACGGGATT
# B25: CUAUCGU (DNA:RNA)
# RNA: B2 RNA with G25C, G26U, G27A, G28U, C31U
# DNA 1: CAATCTGAATTCCGGTCTCCC
# DNA 2: TGGTGGCTACGACGGGATT
# B26: CUUAUUA (DNA:RNA)
# RNA: GGGAGACCGGAAUUCAGAUUGUCCCUUAUUAUUAAAUCCCGUCGUAGCCACCA
# DNA 1: CAATCTGAATTCCGGTCTCCC
# DNA 2: TGGTGGCTACGACGGGATT
# B27: AGUAGGC (DNA:RNA)
# RNA: B2 RNA with G25A, G27U, G28A, C29G
# DNA 1: CAATCTGAATTCCGGTCTCCC
# DNA 2: TGGTGGCTACGACGGGATT
# B28: ACCAGUG (DNA:RNA)
# RNA: B26 RNA with C25A, U26C, U27C, U29G, A31G
# DNA 1: CAATCTGAATTCCGGTCTCCC
# DNA 2: TGGTGGCTACGACGGGATT
# B29: AUACGCA (DNA:RNA)
# RNA: B26 RNA with C25A, U27A, A28C, U29G, U30C
# DNA 1: CAATCTGAATTCCGGTCTCCC
# DNA 2: TGGTGGCTACGACGGGATT
# B30: AUCAACA (DNA:RNA)
# RNA: B26 RNA with C25A, U27C, U29A, U30C
# DNA 1: CAATCTGAATTCCGGTCTCCC
# DNA 2: TGGTGGCTACGACGGGATT
# B31: AGUGUCC (DNA:RNA)
# RNA: B2 RNA with G25A, G27U, C29U, G30C
# DNA 1: CAATCTGAATTCCGGTCTCCC
# DNA 2: TGGTGGCTACGACGGGATT
# Biological target: T1, RBFOX1 RRM
# Experiment: EMSA; HiTS-Eq, 1 nM pool, 10 min; buffer printed only for the single-RNA assays: 10 mM Tris pH 7.5, 150 mM NaCl, 3.4 mM EDTA, 0.001% NP-40, 30 C
# Conditions: tags: His6 N-terminal (pET28a); label: 5' 32P
# In short: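 A pool of RNA with 7 randomized nucleotides, 5′-radiolabelled and with DNA-annealed flanks, was equilibrated at 1 nM for 10 min in 50 µL with purified RbFox RRM, wild type or mutant, across increasing protein concentrations. Free RNA was separated by 8% native PAGE, excised, reverse-transcribed, barcoded by PCR and sequenced. Relative association constants were obtained from read-count changes of each RNA species versus the control reaction and normalised to the cognate motif.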
row,Binder,binding signal
1,B1,0.000576 KA relative to UGCAUGU
2,B2,0.0421 KA relative to UGCAUGU
3,B3,0.019 KA relative to UGCAUGU
4,B4,0.0115 KA relative to UGCAUGU
5,B5,0.0127 KA relative to UGCAUGU
6,B6,0.0115 KA relative to UGCAUGU
7,B7,0.0951 KA relative to UGCAUGU
8,B8,0.0323 KA relative to UGCAUGU
9,B9,0.00144 KA relative to UGCAUGU
10,B10,0.000967 KA relative to UGCAUGU
11,B11,0.0106 KA relative to UGCAUGU
12,B12,0.0198 KA relative to UGCAUGU
13,B13,0.00754 KA relative to UGCAUGU
14,B14,0.00621 KA relative to UGCAUGU
15,B15,0.013 KA relative to UGCAUGU
16,B16,0.00477 KA relative to UGCAUGU

row,Binder,binding signal
1,B17,0.00888 KA relative to UGCAUGU
2,B18,0.00971 KA relative to UGCAUGU
3,B19,0.0123 KA relative to UGCAUGU
4,B20,0.00734 KA relative to UGCAUGU
5,B21,0.0196 KA relative to UGCAUGU
6,B22,0.00549 KA relative to UGCAUGU
7,B23,0.00499 KA relative to UGCAUGU
8,B24,0.0102 KA relative to UGCAUGU
9,B25,0.0114 KA relative to UGCAUGU
10,B26,0.00184 KA relative to UGCAUGU
11,B27,0.00768 KA relative to UGCAUGU
12,B28,0.00615 KA relative to UGCAUGU
13,B29,0.00877 KA relative to UGCAUGU
14,B30,0.00141 KA relative to UGCAUGU
15,B31,0.00976 KA relative to UGCAUGU
